Common to all, as to assay: Primary Screen for Target Class Profiling of Small Molecule Inhibitors of Methyltransferases
Assay [1] deals with Glycine N-methyltransferase (Homo sapiens) (UniProt Q14749). Particulars: purified enzyme, MTase-Glo SAH luminescence; measured here: GNMT inhibition; at 40 µM; stronger effect = lower value. Summed up: (§1)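 Each enzyme was assayed with SAM and its substrate. SAH formation detected by MTase-Glo luminescence; single-point 40 uM screen[…].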
Assay [2] has as its target Guanidinoacetate N-methyltransferase (Homo sapiens) (UniProt Q14353). Particulars: purified enzyme, MTase-Glo SAH luminescence; measured here: GAMT inhibition; at 40 µM; stronger effect = lower value. Summed up: as §1
Assay [3] deals with Histamine N-methyltransferase (Homo sapiens) (UniProt P50135). As to conditions: purified enzyme, MTase-Glo SAH luminescence; measured here: HNMT inhibition; at 40 µM; stronger effect = lower value. The procedure, abridged:
as §1

Assay [4] deals with Nicotinamide N-methyltransferase (Homo sapiens) (UniProt P40261). Particulars: purified enzyme, MTase-Glo SAH luminescence; measured here: NNMT inhibition; at 40 µM; stronger effect = lower value. The procedure, abridged:
as §1

The target in assay [5] is Phenylethanolamine N-methyltransferase (Homo sapiens) (UniProt P11086). As to conditions: purified enzyme, MTase-Glo SAH luminescence; measured here: PNMT inhibition; at 40 µM; stronger effect = lower value. Summed up:
as §1

Here are results for 38 molecules from PubChem BioAssay AID1745853 (National Center for Advancing Translational Sciences (NCATS), 2022).

“And” between values parts separate entries of the source, which are not always exact repeats. Equal values may be shown once. The list shows a part of the results. The main result of the screen is listed elsewhere. These columns were measured beside it and carry no call.
% is scaled to controls: 0 for no effect and ±100 for the full control effect.

As to `Cc1nnc2n1CCC(NC(=O)c1cnccn1)CC2` (stereo not given), the activity change, negative = inhibition is -2.47% in assay [1]; -1.26% in assay [2]; -1.8% in assay [3]; -4.76% in assay [4]; 2.8% in assay [5].
On to `CCc1ccc(S(=O)(=O)c2nnn3c2nc(NCCCOC(C)C)c2cc(Cl)ccc23)cc1`, for which the activity change, negative = inhibition in assay [1] is -11.3%; in assay [2] it was 2.09%; in assay [3], -6.64%; in assay [4] it was -6.44%; in assay [5] it was -6.84%.
As to `CCCNCC(O)COc1ccccc1C(=O)CCc1ccccc1` (stereo not given), the activity change, negative = inhibition in assay [1] is 2.31%; in assay [2], 13.1%; in assay [3] it was -5.48%; in assay [4], -3.75%; in assay [5], 8.74%.
Turning to `O=C(Nc1ccc(Cl)cc1F)c1ccccc1O`, the activity change, negative = inhibition in assay [1] is 1.39%; in assay [2], 2.7%; in assay [3] it was 7.99%; in assay [4], -12.4%; in assay [5], 2.04%.
With `CCC(C)NC(=O)CN1CN(c2ccccc2)C2(CCN(C(=O)Nc3ccccc3C)CC2)C1=O` (stereo not given), the activity change, negative = inhibition was -5.81% in assay [1]; -6.26% in assay [2]; -2.46% in assay [3]; -14.4% in assay [4]; -7.47% in assay [5].
Consider `CCc1ccc(C2c3cccn3-c3sc4c(c3CN2C(=O)Nc2ccc(OC)cc2OC)CCCC4)cc1` (stereo not given), for which the activity change, negative = inhibition in assay [1] amounted to 0.337%; in assay [2] it was 0.431%; in assay [3], 4.37%; in assay [4], 8.47%; in assay [5], 9.21%.
In the same order, the values of `COC(=O)C(Cc1c[nH]c2ccccc12)NC(=O)c1ccc(Br)cc1` (stereo not given) are 1.88%, 2.66%, -2.85%, 1.59% and -0.539%.
The like results for `O=C(c1ccco1)N1CCC2(CCN(CCCn3cccn3)CC2)C(CO)C1` (stereo not given) were, in that order, 4.38%, -6.45%, -2.26%, -10.4% and -5.93%.
In the same order, the values of `COc1ccc(NC(=O)C[C@@H]2C[C@@H](C(C)C)[C@H](CC#N)C=C2C)cn1` are -8.73%, -6.33%, -5.25%, -25.2% and -10.5%.
Consider `Cn1c(=O)c2ccc(C(=O)NC3CCCC3)cc2n2c(=O)n(CC(=O)Nc3cc(F)ccc3F)nc12`, for which the activity change, negative = inhibition in assay [1] is 3.94%; in assay [2], 0%; in assay [3] it was 2.5%; in assay [4], -0.252%; in assay [5], 0.018%.
The like results for `Cc1cc(C)c(S(=O)(=O)NCCc2n[nH]c(Cc3ccccc3)n2)cc1C` were, in that order, 14.7%, 0%, 12.3%, 0.547% and 5.38%.
The like results for `COc1ccccc1CNC(=O)C1(C)Cn2cnc(C(=O)NCc3cccnc3)c2C(=O)N1C1CC1` (stereo not given) were, in that order, -3.4%, 2.72%, -0.226%, -2.17% and -3.69%.
`C=C[C@H]1[C@H](O[C@@H]2O[C@H](CO)[C@@H](O)[C@H](O)[C@H]2O)OC=C(C(=O)OC)[C@H]1CC(=O)O`: the activity change, negative = inhibition is -2.97% in assay [1]; -11.8% in assay [2]; 5.13% in assay [3]; -23% in assay [4]; -5.66% in assay [5].
In the same order, the values of `Cc1ccc(N2C(=O)c3cc(-c4ccco4)nn3CC2(C)C(=O)NC2CCCCC2)c(C)c1` (stereo not given) are -6.07%, -8.33%, 6.08%, -5.7% and -2.69%.
For the molecule `C=C1C(=O)O[C@H]2C1[C@H](OC(=O)/C(=C/CO)COC(=O)/C(C)=C/CO)CC(=C)[C@@H]1CC(=O)[C@@H](C)[C@@H]12` (stereo not given in full), the activity change, negative = inhibition in assay [1] is -13.5%; in assay [2], -27.8%; in assay [3], 4.51%; in assay [4], -38.8%; in assay [5], -9.9%.
As for `Cc1ccccc1CN1C(=O)c2cc3occc3n2CC1(C)C(=O)NC1CCCCC1` (stereo not given), the activity change, negative = inhibition in assay [1] was -2.24%; in assay [2], 4.14%; in assay [3], 2.11%; in assay [4] it was 5.64%; in assay [5], -1.69%.
For `CN1C(=O)c2cc(C(=O)NCCc3ccccc3)nn2CC1(C)C(=O)NC1CCCCC1` (stereo not given), the activity change, negative = inhibition in assay [1] was found to be 1.41%; in assay [2], 4.14%; in assay [3] it was 0.769%; in assay [4], 1.79%; in assay [5], 2.94%.
Turning to `O=C(CCn1ccc2cc(S(=O)(=O)N3CCCCC3)ccc21)NCc1ccccn1`, the activity change, negative = inhibition in assay [1] was -2.9%; in assay [2] it was -2.66%; in assay [3], 1.17%; in assay [4], -4.72%; in assay [5], -1.99%.
For the molecule `O=C(CCc1nnc2n(Cc3ccccc3)c(=O)c3ccccc3n12)N1CCC(Cc2ccccc2)CC1`, the activity change, negative = inhibition in assay [1] was -4.81%; in assay [2], 1.3%; in assay [3], -2.09%; in assay [4], -4.17%; in assay [5], -4.04%.
As to `O=C(OC(C(F)(F)F)C(F)(F)F)N1CCN(Cc2cccc(Oc3ccccc3)c2)CC1`, the activity change, negative = inhibition is -0.343% in assay [1]; -11.1% in assay [2]; 7.38% in assay [3]; -17.3% in assay [4]; -5.77% in assay [5].
In the same order, the values of `COC(C(=O)Nc1ccnn1C1CCN(C(=O)CO)CC1)c1ccccc1` (stereo not given) are -1.06%, -7.92%, -0.309%, -1.61% and -1.3%.
With `CN(Cc1ccc(-c2ccccc2)cc1)C(=O)Cc1ccccn1`, the activity change, negative = inhibition in assay [1] was -9.49%; in assay [2], -2.48%; in assay [3], -6.36%; in assay [4], -17.2%; in assay [5] it was -6.55%.
Regarding `CCCCNc1nc2c(S(=O)(=O)c3ccc(C(C)C)cc3)nnn2c2ccccc12`, the activity change, negative = inhibition in assay [1] was -0.643%; in assay [2], -0.259%; in assay [3], -3.92%; in assay [4] it was -15.6%; in assay [5], -4.36%.
Regarding `O=C(Nc1ccc(N(Cc2ccsc2)C(=O)Cn2nnc3ccccc32)cc1)C1CC1`, the activity change, negative = inhibition in assay [1] is 0.096%; in assay [2], 1.57%; in assay [3], 3%; in assay [4] it was -17.9%; in assay [5], -5.85%.
Turning to `O=C1CN(Cc2ccccc2Cl)S(=O)(=O)c2ccccc2N1Cc1cccc(F)c1`, the activity change, negative = inhibition in assay [1] was 15.1%; in assay [2], 0%; in assay [3], 8.48%; in assay [4], 1.28%; in assay [5], 4.43%.
On to `Cc1cccc(-c2noc([C@@H]3Cc4nc[nH]c4CN3C(=O)c3ccc(-c4ccccc4)cc3)n2)c1`, for which the activity change, negative = inhibition in assay [1] is -3.79%; in assay [2], -2.57%; in assay [3], -1.1%; in assay [4], -3.98%; in assay [5], -15.8%.
In the case of `Cc1ncc2c(c1CNC(=O)CC(C)c1ccccc1)CCNC2` (stereo not given), the activity change, negative = inhibition was -6.14% in assay [1]; -8.97% in assay [2]; -5.55% in assay [3]; -15% in assay [4]; 5.16% in assay [5].
As to `CN(C)c1nc(N(C)C)nc(N(C)C)n1`, the activity change, negative = inhibition was 4.01% in assay [1]; -6.23% in assay [2]; 7.86% in assay [3]; -9.08% in assay [4]; -5.18% in assay [5].
The like results for `CC(C)CCNC(=O)C1(C)Cn2c(ccc2-c2ccco2)C(=O)N1Cc1ccc2c(c1)OCO2` (stereo not given) were, in that order, -3.02%, 0%, 3.84%, 1.8% and -1.79%.
For `CC(C)NC(=O)c1ccc2c(=O)n(C(C)C)c3nn(CC(=O)Nc4ccccc4Cl)c(=O)n3c2c1`, the activity change, negative = inhibition in assay [1] is 5.15%; in assay [2] it was 2.62%; in assay [3] it was 9.68%; in assay [4] it was -0.603%; in assay [5], 7.95%.
As for `COc1cc2c(cc1-c1c(C)noc1C)ncc1[nH]c(=O)n([C@H](C)c3ccccn3)c12`, the activity change, negative = inhibition in assay [1] was -89.4% and -63.9%; in assay [2] it was -6.04% and 2.33%; in assay [3], -12.5% and -9.83%; in assay [4], -46.8% and -43.9% and -43.3%; in assay [5] it was -12.6% and 17.8% and -3.62%.
Take `Cn1c2c(c3ccccc31)C(C(=O)NC1CCCCCC1)N(Cc1ccc(F)cc1)C(=O)CS2` (stereo not given): the activity change, negative = inhibition in assay [1] is 2.64%; in assay [2] it was 2.65%; in assay [3], 0.164%; in assay [4], -10.1%; in assay [5] it was -4.54%.
As to `COc1nccc(-c2c(-c3ccc(F)cc3)ncn2C2CCNCC2)n1`, the activity change, negative = inhibition is 2.12% in assay [1]; 9.97% in assay [2]; 0.312% in assay [3]; -13.2% in assay [4]; 2.08% in assay [5].
Consider `Cc1[nH]c(=O)[nH]c(=O)c1CC(=O)N[C@@H]1COCC[C@@H]1OCc1ccccc1`, for which the activity change, negative = inhibition in assay [1] is -7.08%; in assay [2], -12.6%; in assay [3] it was -4.84%; in assay [4], -17.6%; in assay [5] it was -14.8%.
The like results for `c1c(-c2nc(C3CCOC3)no2)sc2c1CCCC2` (stereo not given) were, in that order, -4.58%, -1.15%, -1.27%, -5.03% and 1.55%.
Take `CCOc1ccc(C2c3cccn3-c3sc4c(c3CN2C(=O)Nc2ccccc2)CCCC4)cc1` (stereo not given): the activity change, negative = inhibition in assay [1] was -0.016%; in assay [2], 3.86%; in assay [3], 1.84%; in assay [4], -4.88%; in assay [5], 1.75%.
In the same order, the values of `Cn1cc(CN2C[C@H](C(=O)NCc3ccccc3)C[C@H]2c2cccc(C(F)(F)F)c2)cn1` are -2.74%, -1.08%, 1%, -3.37% and 1.28%.
The like results for `CCN1CCN(c2nc3c(S(=O)(=O)c4ccc(C)c(C)c4)nnn3c3ccc(Cl)cc23)CC1` were, in that order, -12.8%, 1.23%, -19.9%, -11.9% and -2.83%.
